Experiment [1] has as its target T1, EHD1 (endogenous, mouse tissue) (mouse (endogenous in mouse tissue)) (UniProt Q9WVK4).
T1 sequence: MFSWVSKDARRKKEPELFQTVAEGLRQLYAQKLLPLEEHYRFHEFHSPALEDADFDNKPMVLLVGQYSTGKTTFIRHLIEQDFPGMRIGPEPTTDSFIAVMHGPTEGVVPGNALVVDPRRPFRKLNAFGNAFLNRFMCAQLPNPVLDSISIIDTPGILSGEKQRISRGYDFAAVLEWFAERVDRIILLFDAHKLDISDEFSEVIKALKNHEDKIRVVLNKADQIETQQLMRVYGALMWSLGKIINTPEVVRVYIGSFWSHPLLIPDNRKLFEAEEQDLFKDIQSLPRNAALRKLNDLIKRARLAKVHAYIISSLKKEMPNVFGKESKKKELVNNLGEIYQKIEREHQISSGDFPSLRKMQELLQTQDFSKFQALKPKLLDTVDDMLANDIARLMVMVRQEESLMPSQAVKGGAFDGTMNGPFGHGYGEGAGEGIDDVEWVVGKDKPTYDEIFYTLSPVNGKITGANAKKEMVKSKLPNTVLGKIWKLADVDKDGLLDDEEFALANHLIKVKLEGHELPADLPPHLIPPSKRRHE
The experiment is described as follows: co-IP; mouse tissue extracts, endogenous proteins, IP with anti-human EHD1 antibodies; data not shown.

The target in experiment [2] is T2, Myc-EHD2 (human), Q9NZN4.
T2 chain: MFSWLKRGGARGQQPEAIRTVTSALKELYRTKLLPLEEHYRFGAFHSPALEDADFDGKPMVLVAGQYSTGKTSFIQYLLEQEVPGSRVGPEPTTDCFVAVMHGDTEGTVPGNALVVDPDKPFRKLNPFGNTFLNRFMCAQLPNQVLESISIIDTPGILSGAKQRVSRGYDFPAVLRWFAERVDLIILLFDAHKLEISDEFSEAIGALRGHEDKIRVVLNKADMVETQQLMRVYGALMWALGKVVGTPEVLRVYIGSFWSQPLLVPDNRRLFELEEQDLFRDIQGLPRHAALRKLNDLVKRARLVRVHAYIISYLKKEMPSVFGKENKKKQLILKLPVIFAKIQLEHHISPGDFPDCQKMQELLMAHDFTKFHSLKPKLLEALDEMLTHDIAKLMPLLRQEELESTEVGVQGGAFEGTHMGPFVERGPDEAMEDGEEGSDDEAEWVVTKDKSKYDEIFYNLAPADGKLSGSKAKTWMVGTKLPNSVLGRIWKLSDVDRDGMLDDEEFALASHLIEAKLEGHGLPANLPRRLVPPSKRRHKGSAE
The experiment is described as follows: co-IP; HeLa cells, Myc- and GFP-tagged EHD proteins; data not shown. The following applies: remark: other sources report otherwise.

Experiment [3] deals with T2, Myc-EHD2 (human), Q9NZN4. Nature of the experiment: co-IP; HEK 293T co-transfected with one Myc-tagged and one GFP-tagged construct (2.5 μg each); lysis in 1% Triton X-100, 150 mM NaCl, 50 mM Tris-HCl pH 7.6; lysates rocked overnight at 4°C; 1 mg lysate, IP with 3 μg anti-Myc (9E10), anti-GFP immunoblot. Conditions: remark: other sources report otherwise.
The target of experiment [4] is T3, Myc-EHD1 (human), Q9H4M9.
T3 chain: T1 sequence with S350P, A408V, I526V
The experiment is described as follows: co-IP; HeLa cells, Myc- and GFP-tagged EHD proteins; data not shown. Conditions: remark: other sources report otherwise.

Experiment [5] has as its target T3, Myc-EHD1 (human), Q9H4M9. Nature of the experiment: co-IP; HEK 293T co-transfected with one Myc-tagged and one GFP-tagged construct (2.5 μg each); lysis in 1% Triton X-100, 150 mM NaCl, 50 mM Tris-HCl pH 7.6; lysates rocked overnight at 4°C; 1 mg lysate, IP with 3 μg anti-Myc (9E10), anti-GFP immunoblot. Conditions: remark: other sources report otherwise.
Experiment [6] concerns the target T4, Myc-EHD1 (human) (UniProt Q9H4M9).
T4 sequence: T1 sequence with S350P, A408V, I526V
Described as above.

Positions count from the first letter of the chain named. Results are given in words; binding and its absence hold for the method and conditions named. In cells and extracts the contact can be indirect. Some results given as binding are weak or reduced against the parent protein; the word gives no strength. For some of these results: Sequences can lack the tags named with a protein.

B1: EHD4 (endogenous, mouse tissue) (protein, UniProt Q9EQP2 1-541)
chain: MFSWMGRQAGGRERSGGMDAVQTVTGGLRSLYQRKVLPLEEAYRFHEFHSPALEDADFENKPMILLVGQYSTGKTTFIRYLLEQDFPGMRIGPEPTTDSFIAVMYGETEGSTPGNALVVDPKKPFRKLSRFGNAFLNRFMCSQLPNQVLKSISIIDSPGILSGEKQRISRGYDFCQVLQWFAERVDRIILLFDAHKLDISDEFSEAIKAFRGQDDKIRVVLNKADQVDTQQLMRVYGALMWSLGKVINTPEVLRVYIGSFWAQPLQNTDNRRLFEAEAQDLFRDIQSLPQKAAVRKLNDLIKRARLAKVHAYIISYLKKEMPNMFGKENKKRELIYRLPEIYVQLQREYQISAGDFPEVKAMQEQLENYDFTKFHSLKPKLIEAVDNMLTNKISSLMGLISQEEMNMPTQMVQGGAFDGTTEGPFNQGYGEGAKEGADEEEWVVAKDKPVYDELFYTLSPINGKISGVNAKKEMVTSKLPNSVLGKIWKLADCDCDGMLDEEEFALAKHLIKIKLDGYELPNSLPPHLVPPSHRKSLPKAD
For the molecule B1, the binding entry in experiment [1] is “binds”.

B2: EHD1-GFP, Q9H4M9 1-534 (protein)
chain: T1 sequence with S350P, A408V, I526V
On to B2, for which the binding result in experiment [2] and in experiment [3] was “binds” throughout.

B3: EHD2 (endogenous, mouse tissue) (protein, UniProt Q8BH64 1-543)
chain: MFSWLKKGGARGQRPEAIRTVTSSLKELYRTKLLPLEEHYRFGSFHSPALEDADFDGKPMVLVAGQYSTGKTSFIQYLLEQEVPGSRVGPEPTTDCFVAVMHGETEGTVPGNALVVDPEKPFRKLNPFGNTFLNRFMCAQLPNQVLESISIIDTPGILSGAKQRVSRGYDFPAVLRWFAERVDLIILLFDAHKLEISDEFSEAIGALRGHEDKIRVVLNKADMVETQQLMRVYGALMWALGKVVGTPEVLRVYIGSFWSQPLLVPDNRRLFELEEQDLFRDIQGLPRHAALRKLNDLVKRARLVRVHAYIISYLKKEMPTVFGKENKKKQLILKLPVIFAKIQLEHHISPGDFPDCQKMQELLMAHDFTKFHSLKPKLLEALDDMLAQDIAKLMPLLRQEELESVEAGVQGGAFEGTRMGPFVERGPDEAIEDGEEGSEDDAEWVVTKDKSKYDEIFYNLAPADGKLSGSKAKTWMVGTKLPNSVLGRIWKLSDVDRDGMLDDEEFALASHLIEAKLEGHGLPTNLPRRLVPPSKRRQKGSAE
B3: in experiment [1], the binding result is “binds”.

B4: EHD2-GFP, Q9NZN4 1-543 (protein)
chain: T2 chain
B4: the binding result in experiment [4] and in experiment [5] was “binds” each time.

B5: GFP-myotubularian-related protein 3 (MTMR3) (protein, UniProt Q13615 1-1198)
chain: MDEETRHSLECIQANQIFPRKQLIREDENLQVPFLELHGESTEFVGRAEDAIIALSNYRLHIKFKESLVNVPLQLIESVECRDIFQLHLTCKDCKVIRCQFSTFEQCQEWLKRLNNAIRPPAKIEDLFSFAYHAWCMEVYASEKEQHGDLCRPGEHVTSRFKNEVERMGFDMNNAWRISNINEKYKLCGSYPQELIVPAWITDKELESVSSFRSWKRIPAVIYRHQSNGAVIARCGQPEVSWWGWRNADDEHLVQSVAKACASDSRSSGSKLSTRNTSRDFPNGGDLSDVEFDSSLSNASGAESLAIQPQKLLILDARSYAAAVANRAKGGGCECPEYYPNCEVVFMGMANIHSIRRSFQSLRLLCTQMPDPGNWLSALESTKWLHHLSVLLKSALLVVHAVDQDQRPVLVHCSDGWDRTPQIVALAKLLLDPYYRTIEGFQVLVEMEWLDFGHKFADRCGHGENSDDLNERCPVFLQWLDCVHQLQRQFPCSFEFNEAFLVKLVQHTYSCLFGTFLCNNAKERGEKHTQERTCSVWSLLRAGNKAFKNLLYSSQSEAVLYPVCHVRNLMLWSAVYLPCPSPTTPVDDSCAPYPAPGTSPDDPPLSRLPKTRSYDNLTTACDNTVPLASRRCSDPSLNEKWQEHRRSLELSSLAGPGEDPLSADSLGKPTRVPGGAELSVAAGVAEGQMENILQEATKEESGVEEPAHRAGIEIQEGKEDPLLEKESRRKTPEASAIGLHQDPELGDAALRSHLDMSWPLFSQGISEQQSGLSVLLSSLQVPPRGEDSLEVPVEQFRIEEIAEGREEAVLPIPVDAKVGYGTSQSCSLLPSQVPFETRGPNVDSSTDMLVEDKVKSVSGPQGHHRSCLVNSGKDRLPQTMEPSPSETSLVERPQVGSVVHRTSLGSTLSLTRSPCALPLAECKEGLVCNGAPETENRASEQPPGLSTLQMYPTPNGHCANGEAGRSKDSLSRQLSAMSCSSAHLHSRNLHHKWLHSHSGRPSATSSPDQPSRSHLDDDGMSVYTDTIQQRLRQIESGHQQEVETLKKQVQELKSRLESQYLTSSLHFNGDFGDEVTSIPDSESNLDQNCLSRCSTEIFSEASWEQVDKQDTEMTRWLPDHLAAHCYACDSAFWLASRKHHCRNCGNVFCSSCCNQKVPVPSQQLFEPSRVCKSCYSSLHPTSSSIDLELDKPIAATSN
B5: the binding result in experiment [6] is “no binding”.

(Values after publication PMC1793994.)
